{
  "source": "paper PMC4735112",
  "about": "“The Functional Unit of Neisseria meningitidis 3-Deoxy-ᴅ-Arabino-Heptulosonate 7-Phosphate Synthase Is Dimeric” (PLoS ONE, 2016)",
  "target": "the molecule itself",
  "assay": "SEC",
  "data": [
    {"protein": "Neisseria meningitidis 3-deoxy-D-arabino-heptulosonate 7-phosphate synthase, wild type (enzyme, 3-deoxy-D-arabino-heptulosonate 7-phosphate synthase (type I alpha DAH7PS) of Neisseria meningitidis; theoretical mass of a single chain 38.7 kDa; Homotetramer (dimer of tight dimers) in solution and in the crystal; also called NmeDAH7PS; NmeDAH7PS^WT; source: purified as previously described [12]) not shown", "values": [
      {"measurement": "stoichiometry N", "result": 4}
    ]}
  ]
}
